23 molecules from ChEMBL document CHEMBL4888484, “Replenishing the malaria drug discovery pipeline: Screening and hit evaluation of the MMV Hit Generation Library 1 (HGL1) against asexual blood stage Plasmodium falciparum ,using a nano luciferase reporter read-out” (2022) can be followed below.

Screen size: about 150,000 compounds; about 540 (0.36%) showed an effect of 50% or more. The list shows a part of the results.

For this test, the system named is Plasmodium falciparum. Nature of the test: Primary screen in NF54 nanoGlo assay, in single point, at 2uM, 72h; a lower Z score goes with more inhibition. The conditions noted are these: timepoint 72 hour. The class given is functional, Erythrocyte.
`Cc1ccsc1C(CO)NC1CCCn2ccnc21` (stereo unspecified): the “% Inhibition” value is given as -14% and the Z score is recorded as 2.1.

For `CN(C)c1ccc(C#N)c(NS(=O)(=O)c2ccc(CC#N)cc2)c1`, the “% Inhibition” value was -3% and the Z score was found to be 0.42.

For `Cc1c(Br)cc(F)cc1C(=O)N[C@@]1(CCO)CCOC1`, the “% Inhibition” value is -4% and the Z score is 0.37.

As for `O=C(NCc1ccco1)c1ccc2c(=O)n(-c3cccc(F)c3)c(N3CCOCC3)nc2c1`, the “% Inhibition” value is on record as -14% and the Z score was 2.69.

Consider `CCc1nc(C)c(-c2nc(C3CC3)nn2[C@H]2CCS(=O)(=O)C2)o1`, for which the “% Inhibition” value is recorded as -25% and the Z score amounted to 3.23.

In the case of `Cc1ncc(CO)c(CN(C)CC2CCCC2)c1O`, the “% Inhibition” value is on record as -9% and the Z score is on record as 0.95.

Take `O=C(CC1CCC1)N1CCC(CF)CC1`: the “% Inhibition” value stood at 14% and the Z score is recorded as -1.8.

For `O=C(NCc1ccc2c(c1)OCO2)C1CC(c2ccccc2)CN(C(=O)c2ccccc2F)C1` (stereo unspecified), the “% Inhibition” value was -5% and the Z score was 0.5.

As to `CC(C)C[C@H]1COCCN1C(=O)N[C@@H]1CCCN(C(=O)CCC(F)(F)F)C1`, the “% Inhibition” value is -4% and the Z score came out at 0.74.

As to `CCN1CCCC1CN1CC(C(=O)Nc2ccc(C)c(O)c2)CC1=O` (stereo unspecified), the “% Inhibition” value is recorded as -3% and the Z score turned out to be 0.39.

With `COCCCNC(=O)C1Cc2ccc(OC)cc2N2CCN(Cc3ccc(Cl)cc3)CC12` (stereo unspecified), the “% Inhibition” value was -9% and the Z score is on record as 1.05.

In the case of `CCc1nnc(CN(C)c2cc(C3CC3)ncn2)o1`, the “% Inhibition” value is reported as 0% and the Z score is reported as -0.04.

With `CC(=O)N1CC[C@H](CNC(=O)c2cc(Cc3ccccc3)n[nH]2)C1`, the “% Inhibition” value is recorded as 8% and the Z score is reported as -1.56.

Consider `O[C@H]1CCCN(Cc2cc(Cl)c3c(c2)OCCCO3)C1`, for which the “% Inhibition” value came out at 12% and the Z score is reported as -1.6.

Regarding `O=C([C@H]1CCCN(c2ncnc3c2nc2n3CCCCC2)C1)N1CCCc2ccccc21`, the “% Inhibition” value was -7% and the Z score is 1.1.

`O=C(CN1CCN(c2ccccc2)C1=O)N1CCC(Cc2ccccc2)CC1`: the “% Inhibition” value is -11% and the Z score is 1.28.

Take `CC(C)c1nccc(-c2nccn2Cc2cnn(-c3ccccc3)c2)n1`: the “% Inhibition” value was -9% and the Z score worked out at 1.84.

Regarding `CC(=O)Nc1c(-c2ccccn2)nsc1C(=O)N1CCCCCC1`, the “% Inhibition” value was -2% and the Z score was 0.23.

For `Cn1nc(-c2c[nH]c3ccccc23)nc1C1CCC1`, the “% Inhibition” value is -7% and the Z score is given as 0.79.

Turning to `O=C(NCc1cccnc1)c1cnn(-c2nccc(-c3ccc4c(c3)OCO4)n2)c1-c1ccco1`, the “% Inhibition” value is given as -6% and the Z score came to 0.87.

In the case of `Cc1cn2c(nc1=O)OC1CC2OC1CO` (stereo unspecified), the “% Inhibition” value was -4% and the Z score was found to be 0.8.

As to `COc1ccc(CNC(=O)N2CC(F)(F)C[C@H]2CN2CCCc3ccccc32)cc1`, the “% Inhibition” value is -12% and the Z score is listed as 2.13.

In the case of `O=C(Cn1nc2c(=O)n(-c3ccc(Br)cc3)ccn2c1=O)Nc1ccccc1`, the “% Inhibition” value is given as -3% and the Z score was 0.49.
